# Several values for one entry are separate records, joined by “and”; a condition that tells them apart may be missing. Equal entries are not always repeated.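 Compound exposure: 48 hours, 5 concentrations, 96-well plates. GI50 marks 50% less growth. TGI marks complete inhibition of growth.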
# Test system: NCI-H322M lung
# Experiment: NCI anticancer screen, dose series, 48 h
structure (smiles),measurement,value
COC(=O)C1(NC(=O)C(CC(=O)OCc2ccccc2)NC(=O)OCc2ccccc2)CCCCCC1 (stereo not given),TGI,> 100 µM
FC(F)(F)c1cccc(-c2nc3nc(Cl)c(Cl)nc3[nH]2)c1,TGI,12.4 µM
O=c1[nH]cc(NCCCl)c(=O)[nH]1,TGI,> 100 µM
COc1cc(/C=C2\C(=O)N(c3cccc([N+](=O)[O-])c3)C(c3ccccc3)S2(=O)=O)cc(OC)c1OC (stereo not given),TGI,> 100 µM
c1ccc(C2ONC3=NCCN32)cc1 (stereo not given),GI50,67.9 µM
same,TGI,> 100 µM
CC(=O)O[C@H]1CC(C)(C)C(=C=C/C(C)=C/C=C/C=C/C=C(C)/C=C2C=C(/C=C/[C@@]34O[C@]3(C)C[C@@H](O)CC4(C)C)C(=O)O/2)[C@](C)(O)C1,TGI,> 100 µM
COc1cc(Cl)cc(=O)c(O)c1OC,TGI,> 100 µM
Cc1nc(C(N)=O)c(N)n1CCN1CCN(C(=O)CCCCCCCCCCNC2N=CNc3nc[nH]c32)CC1 (stereo not given),TGI,> 100 µM
O=C1c2cccc([N+](=O)[O-])c2C(=O)N1Cc1ccccc1,TGI,> 100 µM
COC(=O)/C(=N\NC(C)(C)C)C(C(=O)OC)C(=O)C(=O)Nc1cc(Cl)ccc1Cl (stereo not given),TGI,> 100 µM
COc1ccc(N2C(=O)C3c4[nH]c5ccc(OCc6ccccc6)cc5c4C4CCC(c5ccccc5)CC4C3C2=O)cc1 (stereo not given),TGI,> 100 µM
CC1=C(C(=O)Nc2ccccc2C)C(c2ccc(Cl)cc2)C(C(=O)Nc2ccccc2C)=C(C)N1,TGI,> 100 µM
OC1[C@@H]2[C@@H](O)CCCN2C[C@@H](O)[C@H]1O (stereo not given in full),TGI,> 100 µM
O=c1[nH]c2nc3ccccc3c(=O)n2/c1=C/c1ccc(Cl)cc1,TGI,> 100 µM
Oc1cc(Cc2ccccc2)c(Cc2ccccc2)cc1O,TGI,> 10 µM
O=C(O)CC(Cc1ccccc1Cl)C(=O)O (stereo not given),TGI,> 100 µM
C=CCOC(=O)N1c2ccc(O[Si](C)(C)C(C)(C)C)cc2[C@@]23O[C@@]24[C@@H]1C#C/C=C\C#C[C@]3(O)C(OC)(OC)C[C@@H]4C,TGI,> 100 µM
C#CCNC(CSSCC(N)C(=O)O)C(=O)O (stereo not given),TGI,> 100 µM
Cc1ccc(C(=N)c2ccccc2Cc2cccc3ccccc23)c2ccccc12,TGI,> 100 µM
CCOC(=O)C(C#N)(Cc1c[nH]c2ccccc12)NC(C)=O (stereo not given),TGI,> 100 µM
CCO/C(=N/S(=O)(=O)C(F)(F)F)N(C(C)C)C(C)C,TGI,> 100 µM
CC(C)/C(Cl)=N/OC(=O)Nc1ccc(Br)cc1,TGI,28.5 µM
Nc1nc2ccc(-c3nc4ccc5[nH]ncc5c4c4c3CCC4)cc2s1,GI50,1.05 µM
same,TGI,6.07 µM
C[C@@]1(O)C2CC3CC1(c1ccccc1)CC(/C3=N/O)/C2=N\O (stereo not given in full),TGI,> 100 µM
C/C(=N/O)c1cccc(Nc2cc(-n3nnc4ccccc43)nc3ccccc23)c1,GI50,14.7 µM
same,TGI,60.8 µM
COc1cccc(N2C(=O)CSC2c2cccc(Oc3ccccc3)c2)c1 (stereo not given),TGI,> 100 µM
COc1ccc(C2=Nn3c(nnc3-c3cc(Cl)cc(Cl)c3Cl)SC2)cc1,GI50,4.53 µM
same,TGI,> 100 µM
O=c1[nH]c(Nc2ccccc2)nc2c1ncn2CC(O)CSCCO (stereo not given),TGI,> 100 µM
O=C(O)CCc1nc2c(n1-c1ccccc1)C(=O)c1ccccc1C2=O,TGI,> 100 µM
O=C(Oc1cccnc1)c1cccnc1Nc1ccnc(C(F)(F)F)c1,GI50,18.5 µM
same,TGI,52.4 µM
Nc1n(CC(=O)c2ccccc2)nc2sc(-c3ccccc3)n[n+]12,TGI,31.6 µM
C=C(c1ccccc1)C1(O)CCCCC1N (stereo not given),TGI,> 100 µM
COc1ccc2c(c1)C(=O)CC1c3cnccc3C(=O)N21 (stereo not given),TGI,> 100 µM
CC1CC(C)CC(C)C(O)/C(C#N)=C/C=C/CC(C2CCCC2C(=O)O)OC(=O)CC(O)C(C)C1 (stereo not given),GI50,0.0419 µM
same,TGI,0.28 µM and 0.241 µM
N#CC(C#N)=C/C=C(\Cl)c1ccc(Cl)cc1,GI50,20.3 µM
same,TGI,42.1 µM
c1ccc(/C(=N/Nc2nc3ccccc3s2)C2CCCCC2)nc1,TGI,26.3 µM
CC1=NNC(=O)C1C1C(=O)NN=C(c2c[nH]c3ccccc23)C1Br (stereo not given),TGI,> 100 µM
Cn1ncc(-c2ccc3c(=O)[nH]nc(CN)c3c2)c1-c1c(F)c(Cl)cc(OC2CC2)c1C#N,GI50,18.1 µM and 13.9 µM
same,TGI,52.5 µM and 36.7 µM
C[C@@H](NC(C#N)c1ccco1)c1ccccc1 (stereo not given in full),TGI,> 100 µM
Clc1ccc(-c2cn3ccnc3c(-c3ccc(Cl)cc3)n2)cc1,GI50,18.8 µM
same,TGI,> 100 µM
Cc1ccc(S(=O)(=O)NC(=O)Nc2nnc(S(N)(=O)=O)s2)cc1,TGI,> 100 µM
COC(=O)[C@H]1C=NN[C@@H]1C(=O)N1[C@H]2CC3CC[C@@]2(CS1(=O)=O)C3(C)C,TGI,> 100 µM
COC(=O)C1=CO[C@@H](OC2CC(CO)C(O)C(O)C2O)[C@@H]2[C@@H](C)[C@@H](OC(=O)/C=C/c3ccccc3)[C@@H](O)[C@H]12 (stereo not given in full) (tested in a mixture with another compound),TGI,> 100 µM
COC(=O)C1=C(O)C(C(=O)OC)C2CC(=O)CC1C2(C)C (stereo not given),TGI,> 100 µM
O=C(/C=C(/C=C/c1ccc2[nH]ccc2c1)OB(F)F)/C=C/c1ccc2[nH]ccc2c1,GI50,3.11 µM
same,TGI,> 100 µM
CC(=O)c1c(-c2cccc3ccccc23)c(C#N)c(=S)n(C2OC(CO)C(O)C(O)C2O)c1C (stereo not given),TGI,> 100 µM
Cc1cc([NH-])c([NH-])cc1C.[Cl][Pt+2][Cl],GI50,18.3 µM
same,TGI,44.3 µM
Cc1ccc2nc(SCC(=O)N=Nc3c(O)[nH]c4ccccc34)n(-c3ccccc3)c(=O)c2c1,TGI,25.5 µM
CC(N=NNc1ccc(-c2nc3ccccc3[nH]2)cc1)C(=O)O (stereo not given),TGI,> 100 µM
CCNCCNC(=O)c1ccc(I)cc1,TGI,> 100 µM
CO/N=C(\COc1ccc2c(c1)[nH]c1ccccc12)c1ccc(OC)cc1,GI50,7.8 µM
same,TGI,> 100 µM
CCCCCOc1ccc(C=Nc2ccc(CCc3ccc(N=Cc4ccc(OCCCCC)cc4)cc3)cc2)cc1,TGI,> 100 µM
Nc1ncn([C@@H]2S[C@H](CO)[C@@H](O)[C@@H]2F)c(=O)n1,GI50,> 24.4 µM
same,TGI,> 100 µM
Cc1c(OC(C)C(=O)O)ccc2c(-c3ccccc3)cc(=O)oc12 (stereo not given),TGI,> 100 µM
O=C(NCCCOC(=O)CCCCCCCCC(=O)OCCCNC(=O)NC(=O)c1c[nH]c(=O)[nH]c1=O)NC(=O)c1c[nH]c(=O)[nH]c1=O,TGI,> 100 µM
CC(=O)NC1C(OCc2ccccc2)OC(CO)C(O)C1OCC(=O)N1CCCC1C(=O)N[C@@H](CCC(=O)NCCCCNc1c2ccccc2nc2cccc([N+](=O)[O-])c12)C(N)=O (stereo not given in full),TGI,71 µM
CCc1cccc(C)c1NS(=O)(=O)c1ccccc1,TGI,> 100 µM
NC(=O)Nc1c(Cl)cc(S(N)(=O)=O)cc1Cl,TGI,> 100 µM
O=C(NCC1CC1)c1ccc(-c2cccc(C(=O)NC3CC3)c2)cc1,GI50,> 25 µM
same,TGI,> 25 µM
Cc1ccc(S(=O)(=O)SC/C=C\CSS(=O)(=O)c2ccc(C)cc2)cc1,TGI,> 100 µM
O=c1[nH]/c(=C/c2ccc(OCc3ccccc3)cn2)c(=O)[nH]/c1=C/c1ccccc1,TGI,> 100 µM
CN(C)CC(O)c1ccc(Cl)c2ccccc12 (stereo not given),TGI,> 100 µM
O=C(Nc1cccc(Cl)c1)Nn1cnnc1,GI50,> 50 µM
same,TGI,> 100 µM
CCOc1ccccc1CCN=C1NC(=O)/C(=C/c2ccc3ncccc3c2)S1,GI50,1.26 µM
same,TGI,> 25 µM
CN(C)CCNc1ccc2c(=O)n(CCN(C)C)c(=O)n3c4ccc(O)cc4c(=O)c1c23,TGI,0.258 µM
Cc1cc2c(C)nn(Cc3ccccc3)c2c(C(=O)O)c1C,TGI,> 100 µM
CCN(CCCOc1ccccc1)CCN(CC)CCCOc1ccccc1,TGI,30.6 µM
O=C1C2C3C=C4c5ccccc5N(c5ccccc5)C4(C2C(=O)N1c1ccccc1)C1C(=O)N(c2ccccc2)C(=O)C31 (stereo not given),TGI,> 100 µM
CC(CO)Nc1cc(-c2[nH]c3cccnc3c2-c2ccc(F)cc2)ccn1 (stereo not given),GI50,14.8 µM
same,TGI,> 25 µM
O=C(N/N=C/c1ccccc1O)N/N=C/c1ccccc1O,TGI,> 100 µM
COC1CC(N)(c2ccccc2)C(O)C(C)O1 (stereo not given),TGI,> 100 µM
CCOC(=O)Oc1c(OC)cc(C(=O)c2ccc(OC)c(O)c2OC)cc1OC,GI50,2.2 µM
same,TGI,> 100 µM
CN(C)c1cc2ccccc2oc1=O,TGI,> 100 µM
CC(=O)Nc1ccc2c(C)c3c(nc2n1)[nH]c1ccccc13,TGI,> 100 µM
CC(C)(C)c1ccccc1N1C(=O)c2ccc3c4c(ccc(c24)C1=O)N(c1ccccc1C(C)(C)C)C3=O,TGI,> 100 µM
NC(=O)CNC(=O)[C@@H]1CC(OCCC(=O)O)CN1C(=O)C1CCCN1C(=O)OCc1ccccc1 (stereo not given in full),TGI,> 100 µM
O=c1ncccn1[C@@H]1O[C@H](CO)[C@H](O)C1O (stereo not given in full),TGI,> 100 µM
C[C@H](c1ccccc1)N1C(=O)[C@@H](O)[C@H]1[C@H](CO)OCc1ccccc1,TGI,> 100 µM
CN(C(=O)/C=C/c1ccccc1)C1C2CN3CCC(O2)C13 (stereo not given),TGI,> 100 µM
CCOC(=O)c1c(C)n(Cc2ccc(Cl)cc2Cl)c2c1cc(O)c1[nH]c3c(c12)CCCC3,TGI,37.7 µM
O=[N+]([O-])c1ccccc1N=Nc1c(O)[nH]c2cccc(C(F)(F)F)c12,TGI,> 100 µM
Cn1c(=O)c(N=Nc2c(=O)n(C)c(=O)n3c2[nH]c2ccccc23)c2[nH]c3ccccc3n2c1=O,TGI,> 100 µM
CC(=O)c1c(O)c(C)c(O)c(Cc2c(O)c3c(c(C(=O)/C=C/c4ccccc4)c2O)OC(C)(C)C=C3)c1O,TGI,11.9 µM
CC1=C([Se]CC(OC(=O)CC[Se]c2ccccc2)C(=O)NC(C)(C)C)C(=O)c2ccccc2C1=O (stereo not given),GI50,0.422 µM
same,TGI,2.72 µM
O=c1oc2ccccc2c2c1Sc1ccccc1N2,TGI,> 100 µM
CN1CCN(C(=S)N(C)C(=O)c2ccco2)CC1,TGI,> 100 µM
O=C(Nc1ccc(N2C(=O)CSC2c2ccccc2O)cc1)c1ccc(N2C(=O)CSC2c2ccccc2O)cc1 (stereo not given),TGI,> 100 µM
Cc1ccc(C)c(NC(=O)C(=O)C(C(=O)c2ccc3ccccc3c2)C2OC(=O)c3ccccc32)c1 (stereo not given),TGI,57.4 µM
O=C1/C(=C/c2ccc([N+](=O)[O-])cc2)CN(C(=O)CCN2CCC(=NO)CC2)C/C1=C\c1ccc([N+](=O)[O-])cc1,GI50,2.2 µM
same,TGI,6.24 µM
CC(=O)OCc1c2ccccc2c(C)c2c1cc(F)c1ccccc12,TGI,> 100 µM
Cc1c(/C=N/NC(=O)c2ccccc2O)c(=O)n(-c2ccccc2)n1C,TGI,> 100 µM
COc1ccc([C@H]2[C@H]3COC(=O)[C@H]3C(C#N)=C3Sc4ccccc4N32)cc1,TGI,> 100 µM
CN1CCC(CNc2cc(C3(C(=O)Nc4cc(C(=O)Nc5ccc(Cl)c(C(F)(F)F)c5)ccc4F)CC3)ncn2)CC1,GI50,2 µM
same,TGI,5.45 µM
O=C(O)CN(CC(=O)O)C1CCCCC1N1CC(=O)OC(=O)C1 (stereo not given),TGI,> 100 µM
N#C[Se]Cc1cc(-c2ccccc2)n(-c2ccc(S(N)(=O)=O)cc2)n1,GI50,1.76 µM
same,TGI,6.63 µM
c1ccc(NN(Cc2cnccn2)c2ccccc2)cc1,TGI,> 100 µM
COC(=O)c1sc(C(=O)OC)c2c1CS(=O)C2,TGI,> 100 µM
CCc1c(C#N)c(=O)[nH]c(=O)n1CCN1CCN(C(=O)NCCCCCCNC(=O)N2CCN(CCn3c(CC)c(C#N)c(=O)[nH]c3=O)CC2)CC1,TGI,> 100 µM
